# From PubChem BioAssay AID488969 (Vanderbilt High Throughput Screening Facility, 2010)
# The full ranking holds about 110,000 compounds; the median of “z-score” is about -0.1, and the highest 2% start at about 2. This is one part of the list. The source made the active and inactive calls.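 How the source made its calls: active means z-score in the third read window above 3 or below -3; inactive means the rest.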
# Target: Metabotropic glutamate receptor 8 (Rattus norvegicus) (UniProt P70579)
# Assay: mGluR8 Gi/Go-coupled signaling modulation – cell-based, rat, thallium flux, HTS, primary screen (AID 488969)
# Conditions: HEK293 rat mGluR8, GIRK (G protein-gated inwardly rectifying potassium channel) thallium flux, FluoZin2; at 10 µM; stronger effect = higher value; submaximal glutamate (EC20) added with thallium
# UniProt P70579, sequence (P70579 whole entry, looked up): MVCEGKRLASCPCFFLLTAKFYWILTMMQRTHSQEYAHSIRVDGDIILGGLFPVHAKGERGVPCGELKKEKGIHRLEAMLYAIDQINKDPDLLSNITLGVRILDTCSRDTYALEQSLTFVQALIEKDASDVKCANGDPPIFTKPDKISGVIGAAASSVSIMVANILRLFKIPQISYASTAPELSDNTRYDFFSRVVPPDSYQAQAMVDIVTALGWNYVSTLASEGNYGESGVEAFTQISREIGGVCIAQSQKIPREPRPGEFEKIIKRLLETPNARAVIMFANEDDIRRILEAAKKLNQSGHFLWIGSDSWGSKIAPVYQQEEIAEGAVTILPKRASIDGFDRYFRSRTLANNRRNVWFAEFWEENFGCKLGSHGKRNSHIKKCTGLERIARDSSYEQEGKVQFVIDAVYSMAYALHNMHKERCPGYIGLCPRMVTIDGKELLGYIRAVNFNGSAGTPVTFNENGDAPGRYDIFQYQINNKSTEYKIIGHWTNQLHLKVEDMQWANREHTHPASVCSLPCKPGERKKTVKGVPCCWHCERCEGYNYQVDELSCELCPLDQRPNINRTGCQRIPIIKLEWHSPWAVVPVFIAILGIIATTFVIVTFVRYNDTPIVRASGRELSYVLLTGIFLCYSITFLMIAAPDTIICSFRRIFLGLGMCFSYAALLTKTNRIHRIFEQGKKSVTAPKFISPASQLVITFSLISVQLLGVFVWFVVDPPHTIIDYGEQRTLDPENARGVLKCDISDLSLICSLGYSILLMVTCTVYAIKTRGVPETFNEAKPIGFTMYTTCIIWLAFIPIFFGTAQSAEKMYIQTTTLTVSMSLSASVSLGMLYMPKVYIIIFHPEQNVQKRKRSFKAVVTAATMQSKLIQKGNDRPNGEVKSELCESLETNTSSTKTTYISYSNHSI
row,SMILES,z-score
1,N/C(CCCN1CCCCC1)=N/O,0.285
2,Cc1cccc(-c2nnc(-c3cccc(NC(=O)Cc4cccs4)c3)o2)c1,0.0914
3,Nn1c(SCC(=O)NC2CCCCC2)nnc1-c1ccccc1,-0.113
4,CC(C)=CCSc1nnc([C@@H](NC(=O)OC(C)(C)C)C(C)C)o1,-0.198
5,COC(=O)COc1ccc(Cl)cc1C1Nc2ccccc2C(=O)N1c1ccc(OC)cc1 (stereo not drawn),-0.642
6,C=CCn1c(C(CCCC)CC(C)O)n[nH]c1=S (stereo not drawn),-0.296
7,CCNc1ccc(S(=O)(=O)N(C)C)cc1NCC(=O)Nc1ccc(Br)cc1F,-0.257
8,CCC(C(=O)N1CCN(S(C)(=O)=O)CC1)c1ccccc1 (stereo not drawn),-0.0165
9,O=C(COc1ccc(Cl)cc1Cl)NCc1ccco1,0.146
10,Cc1cc(CCN2CCC(=O)NC2=S)ccc1OC(C)C,-0.0392
11,COc1ccc(CNC(=S)N/N=C/c2ccc(OC)c(OC)c2)cc1,0.908
12,O=C(C1=NN(c2ccccc2)C2C(=O)N(c3ccccc3Cl)C(=O)C12)c1ccccc1 (stereo not drawn),0.395
13,Cc1nc(-c2cccnc2)sc1C(N)=O,-0.109
14,Cc1cc(C(F)F)n2ncc(C(=O)NCCc3ccc(Cl)cc3)c2n1,-0.612
15,COc1ccccc1-c1cc(C(=O)NCCCn2ccnc2)no1,-0.27
16,N#CC1=C(N)Oc2c(oc(CO)cc2=O)C1c1ccsc1 (stereo not drawn),0.321
17,COc1ccc(CNC(=O)COC(=O)C2CCC(C(C)(C)C)CC2)cc1 (stereo not drawn),-0.144
18,COc1ccc(-n2c(N)c(C(=O)NCc3ccco3)c3nc4ccccc4nc32)c(OC)c1,-0.884
19,O=C(COc1ccccc1)NC1=NCCS1,-0.0489
20,CCOC(=O)C(=NCCOC)NNc1cc(Cl)ccc1Cl,0.196
21,O=C(CCN1C(=O)C2C3C=CC(C3)C2C1=O)Nc1c(F)cccc1F (stereo not drawn),-0.143
22,COc1ccc(CCN2C(=O)CC(C(N)=O)SC2=Nc2ccccc2)cc1OC (stereo not drawn),1.15
23,Cc1cccc(-c2cc3nc4c(c(N5CCCC(O)C5)n3n2)CCC4)c1 (stereo not drawn),-0.584

row,SMILES,z-score
1,N#CC(C#N)=C1C=CC=CN1/C(=C\c1ccccc1)C(=O)c1cccs1,-0.0557
2,CCOc1ccc(NC(=O)CN(C)CC(=O)NC2CCCc3ccccc32)cc1OCC (stereo not drawn),-1.47
3,CCOc1cnn(-c2cc(Oc3ccc(C)cc3)ncn2)c(=O)c1Cl,-0.1
4,O=C(C(NS(=O)(=O)c1cccc2nsnc12)c1ccccc1)N1CCN(c2ccccn2)CC1 (stereo not drawn),0.582
5,Cc1cc(C)nc(NS(=O)(=O)c2ccc(NC(=O)c3cc(-c4ccccc4)nc4ccccc34)cc2)n1,-0.762
6,COc1cccc(C(=O)N(Cc2nc(-c3cccc(C)c3)no2)C(C)C)c1OC,-0.901
7,O=C1c2cccc3c(N4CCCCC4)ccc(c23)C(=O)N1CCO,-0.897
8,Cc1cc(C)n(-c2nc(N(c3ccccc3)c3ccccc3)nc(-n3nc(C)cc3C)n2)n1,-0.0469
9,CC(C)NC(=O)NC(=O)COc1ccc(Br)cc1Br,-0.136
10,CCCN1CCN(c2nc(-c3cccs3)nc3ccccc23)CC1,-0.0799
11,Cn1cccc1CNC(=O)Nc1ccc(Cl)cc1,-0.0852
12,Cc1noc(C)c1COC(=O)c1ccccc1Oc1ccccc1,-0.794
13,NC(=O)CN1CCN(C(=O)NC2CCCCC2)CC1,0.816
14,O=C(NCCC1=CCCCC1)C1CCN(C(=O)c2ccc(Cl)cc2)CC1,-0.116
15,COc1cccc(-c2ccc(C#N)c(SCC(=O)NCCc3ccc(Cl)cc3)n2)c1,-0.0669
16,CC(C)c1ccccc1NC(=O)c1cnccn1,0.412
17,CCCn1c(=O)c2ccccc2n2c(SCc3nnc(-c4ccccc4Br)o3)nnc12,-0.0586
18,CCCCCCCCOC(=O)CCn1[nH]c(=O)c2ccccc2c1=O,-0.0523
19,COc1ccc(C)cc1NC(=O)CSc1nnc(-c2ccc(Br)cc2)o1,-0.0345
20,S=C1N(c2ccccc2)C(c2ccc(Cl)cc2)N2CCCN12 (stereo not drawn),-0.178
21,CCOC(=O)c1cnn(-c2nc(-c3cccc(F)c3)cs2)c1C(F)(F)F,0.0252
22,Clc1ccc(C2=CC(c3ccco3)n3ncnc3N2)cc1 (stereo not drawn),-1.23
23,Cn1c(=O)oc2cc(C(=O)c3ccccc3)ccc21,0.456

row,SMILES,z-score
1,COc1ccc(NC(=S)NC(NC(=O)/C=C/c2ccccc2)C(Cl)(Cl)Cl)cc1 (stereo not drawn),1.83
2,O=C(NC1CC2CCCC(C1)N2C(=O)N1CCCCC1)C1CCCCC1 (stereo not drawn),-0.162
3,COc1ccc2[nH]c3c(Cl)ncnc3c2c1,-0.502
4,CC(=O)Nc1ccc(C2=NNC(=NCC3CCCO3)SC2)cc1 (stereo not drawn),-0.285
5,Cc1cc(C(=O)c2cnc(/N=C/N(C)C)s2)cc(C)c1O,-0.294
6,O=C(NC1=NCCS1)C1CC(=O)N(c2ccc(F)cc2)C1 (stereo not drawn),-0.0781
7,COC(=O)c1ccc(C)c(NC(=S)NCc2ccc(Cl)cc2)c1,0.0221
8,CCOc1ccc(-n2c(=S)sc3c(=O)[nH]c(SCC(=O)NCc4ccco4)nc32)cc1,-0.78
9,CC(C)(C)c1ccc(C(=O)Nc2ccc(CC(=O)O)cc2)o1,-0.0938
10,CCN(C(=S)Nc1cccc(C)c1)c1ccccc1,-0.0813
11,CCn1c2ccccc2c2cc(/C=N/n3c(C)nnc3C)ccc21,-1.04
12,CCn1cc([N+](=O)[O-])c(C(=O)Nc2c(C)nn(Cc3cccc(F)c3)c2C)n1,-0.443
13,CCCn1c(C)cc(/C=C(\C#N)C(=O)OCC(=O)NC(=O)NC(C)(C)C)c1C,0.103
14,CN1CCN(Cc2nc3ccccc3c(=O)n2Cc2nc(-c3ccc([N+](=O)[O-])cc3)cs2)CC1,-0.753
15,OC(C#CCN1CCOCC1)(c1ccccc1)C1CCCCC1 (stereo not drawn),-0.455
16,NNC(=O)c1cccc(COc2ccc(Br)cc2)c1,-0.203
17,O=C(CSc1nc2ccccc2s1)NNC(=S)Nc1ccc(Br)cc1,0.333
18,CCCc1cc(=O)[nH]c(SCC(=O)N2CCN(c3ccc(F)cc3)CC2)n1,-0.0759
19,CCOc1cc(C2C3=C(CCCC3=O)N(C)C3=C2C(=O)CCC3)cc(Cl)c1O,-0.524
20,CSc1nncc(/C(C)=N\Nc2ccccc2)n1,-0.248
21,CCCn1c(C)cc(=O)c2cc(NC(=O)c3cnccn3)ccc21,-0.106
22,CS(=O)(=O)N1CCC(C(=O)NCc2ccncc2)CC1,-1.79
23,COC(=O)CCc1sc(Nc2ccc(Br)cc2)nc1-c1ccc(OC)cc1,-0.384

row,SMILES,z-score
1,OC(COCC1COc2ccccc2O1)CN1CCN(c2ccccn2)CC1 (stereo not drawn),-0.273
2,Cc1ccc(O)c(N=Cc2sc3ccccc3c2Cl)c1,0.165
3,COc1ccccc1C1C2=C(N=C3SCC(=O)N31)c1ccccc1CC2 (stereo not drawn),0.547
4,Cc1c(C(=O)N/N=C/c2cccnc2)sc(=S)n1C,0.419
5,CCSc1nn2c(=O)c3ccccc3nc2s1,-0.322
6,COc1ccc(-n2c(Cc3cccn3C)nnc2SCC(=O)Nc2cccc(NC(C)=O)c2)cc1,-0.951
7,O=C(Nc1ccc(-c2nc3ccccc3o2)cc1)c1cccnc1,-0.828
8,O=C(NCc1ccccc1)NC(=O)c1ccncc1,1.53
9,CC(C)Cn1c(SCc2nc3ccccc3c(=O)[nH]2)nc2ccccc2c1=O,-0.382
10,C=CCn1c(SCC(=O)Nc2sccc2C(N)=O)nc2ccc(Cl)cc2c1=O,active: 5.23
11,c1ccc2nc3c(cc2c1)CCCCCC3,-0.0331
12,Cc1ccc(CC(=O)NCCS(=O)c2ccc(Cl)cc2)cc1 (stereo not drawn),-0.137
13,COC(=O)c1ccc2c(c1)C(C)(C)C(/C=C/c1ccc(OC)c(OC)c1OC)=[N+]2C,-0.795
14,O=C(c1cc2sccc2n1Cc1ccccc1)N1CCCc2ccccc21,-0.795
15,NC(=O)C1CCN(CCC(=O)Nc2ccc(Br)cc2)CC1,0.0596
16,Cc1cccc(N2C(=O)C(Oc3ccc(Cl)cc3Cl)C2C=O)c1C (stereo not drawn),-0.151
17,O=C(CSc1nc2c(c(=O)n1-c1ccc(Cl)cc1)SCC2)N1CCOCC1,-0.856
18,CCOc1c2ccc(C(=O)NCc3ccco3)cc2nn1CCOC,-0.138
19,COc1cc(S(=O)(=O)NCc2ccc3c(c2)OCO3)ccc1Cl,-0.257
20,Cc1cc(C(=O)Nc2ccc(S(=O)(=O)N3CCCC3)cc2)cs1,-0.157
21,CCn1c2ccccc2c2cc(NC(=O)c3ccccc3[N+](=O)[O-])ccc21,0.156
22,Cc1cc(C)nc(N(C#N)CC(=O)Nc2ccccc2)n1,-0.0517
23,COCCNC(=O)c1cc2ncc(Br)cn2n1,0.00586

row,SMILES,z-score
1,CCN(CC)c1ccc(NC(=O)CCNC(=O)c2ccco2)cc1,-0.285
2,O=C(Nc1ccccn1)c1ccc(COc2ccccc2Cl)o1,-1.26
3,COC(=O)c1ccc(C(=O)OC)c(NC(=O)COC(=O)C2CCCCC2)c1,-0.334
4,CS(=O)(=O)N1CCN(c2ccc([N+](=O)[O-])c(NCc3ccc(Cl)cc3)c2)CC1,0.0438
5,O=C(Nc1ccccc1)/C(=C/c1cccnc1)NC(=O)c1ccco1,-0.163
6,Cc1cccc(/C=N\NC(=O)c2sccc2-n2cccc2)c1,0.485
7,N#CCO/N=C(\c1ccccc1)c1ccncc1,-0.105
8,CCN(CC)CCCNc1nc2ccccc2[nH]1,-0.313
9,CSc1ccccc1C(=O)Nc1ncc(C)s1,-0.0376
10,CN1CCN(c2nc3nonc3nc2N2CCN(C)CC2)CC1,-0.0776
11,Cc1c(Cl)cccc1NC(=O)CNc1cccc(S(=O)(=O)N(C)C)c1,-0.138
12,CCCCSc1nnc(CNC(=O)C23CC4CC(CC(C4)C2)C3)n1Cc1ccccc1,-0.0872
13,Cc1ccc(-c2nc3ccccc3[nH]2)s1,1.21
14,O=C1NC(=O)/C(=C\c2ccc(Sc3ccc(Cl)cc3)o2)N1,-0.263
15,O=C(NCCN1CCOCC1)c1ccc(CS(=O)(=O)c2c(Cl)cccc2Cl)o1,-0.288
16,COc1ccccc1C(=O)NC(C)C(c1cccs1)N1CCOCC1 (stereo not drawn),-0.0315
17,COc1ccc(C2c3c(ccc4ccccc34)Oc3ncn4nc(-c5ccco5)nc4c32)cc1OC (stereo not drawn),0.134
18,COC(=O)c1c(NC(=O)CSc2nc(-c3ccco3)cc(C(F)(F)F)n2)sc2c1CCCC2,0.000118
19,O=C(c1ccc([N+](=O)[O-])cc1)N(Cc1ccc(Cl)cc1)N1C(=O)CCCC1=O,-0.682
20,Cc1ccc2cc(C)c(N3CCN(c4ccccn4)CC3)nc2c1,0.37
21,Cc1ccc(-c2cc(C(=O)N3CCOCC3)c3ccccc3n2)cc1,-0.108
